Test results as given in the supplement of paper PMC11417369.
The list shows a part of the results.

Test system: PfSIP2 AP2 domain 1 (GST-tagged)
Experiment: gcPBM binding intensity (ln(normalized median fluorescence intensity)); higher = stronger DNA binding
In short: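 Probes on an Agilent 4 × 180k array were primer-extended, double-stranded and 36 bp long, taken from intergenic genomic regions, with negative controls added. GST-tagged P. falciparum DNA-binding domains from E. coli, about 25 μg on average, were applied to the array for 1 h in 1× PBS containing 1% milk, 0.2 mg/ml BSA, 0.5% salmon testes DNA and 0.03% Triton X-100. Binding intensity, obtained after Alexa488 anti-GST antibody detection and a 488 nm scan, is the highest Masliner-normalised natural-log median intensity across replicate spots of either probe orientation.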

Sequence	gcPBM binding intensity (ln)
GGAACAAATAATATCACACATATATATATATATATA [CACACA_site5670]	9.5
ATATATTTTATACATACACACATATAAATATTTTTT [CACACA_site7780]	7.27
TAATAAATATATTGAAGTACTTATAAAAAGCAATAT [XGTACX_site6262]	7.29
TAAAATAAAAAAGTAGTACACACTTCACGATATTTT [CACACA_site3896]	7.32
TTAAAAGTAAGCAAAGTGCATATAACAAAAGTAAAG	8.19
AATATAAAACTTTAGAGTACTTATCATTAAAATATA [XGTACX_site4509]	6.63
ATTAATAATGAAAAAAAACACACGGTACATTCAAAG [CACACA_site1302]	7.22
TTGTAAGAAAGACACACACACACATATAAATATGTA [CACACA_site6516]	6.94
TATTTAAAATAATGTGCAAAAGAATAAATAAATAAA [TGCATGCA_negctrl_site194]	7.23
TTCATTTTCATATATTGTACAAAATTTTATAAGGTT [XGTACX_site4522]	7.14
TATATAAGAACTTTTACACACATGAAAATGTAGATA [CACACA_site7711]	6.78
TATATATATATATATACACACATACAGATATATATT [CACACA_site4629]	9.79
ATATACACATATACATGTACAAATATATATACACAT [XGTACX_site2986]	7.23
TTACTATTATTATTTTTTATTTTTATTTTATTTATT [TGCATGCA_negctrl_site269]	6.99
CACTAAAAGAAACACACACACACACCCATATATATA [CACACA_site4151]	7.59
GAATATTCAACATAATGTACAAGTATTCATTTCTTT [XGTACX_site7860]	6.79
CAAAAATAAAAGAAATGTACAAAAAATAATAAAAAA [XGTACX_site6597]	6.96
TAATAAACTTAAAAATGTACATATATTTATTATTAC [XGTACX_site4321]	6.99
AAAATTCATAAATACACACACGCACATATATATATA [CACACA_site4227]	9.04

Sequence	gcPBM binding intensity (ln)
AAAAATTTTCAAGTGTGTACATATTTTCATTTAACA [XGTACX_site6186]	7.09
AAATATATATTCATGTGTACACACAAAAAAAAATAA [XGTACX_site4552]	7.44
AAGAAAAAGTATCCTCTATCTTTATATAAACTATTA [TGCATGCA_negctrl_site2]	6.49
ATGTATATATTTTTATGTACATATTTTTAATTTATA [XGTACX_site2982]	6.88
CATACATATACTTTGTGTACATATATATATTATATA [XGTACX_site97]	7.51
TAATAAAAAATTAAAAAAAATAAAAATAAAAATAAA [GTGCAC_negctrl_site78]	6.73
TTTATACTTTTAAATTGTACTATAAAAAGGAATACA [XGTACX_site2537]	7.26
TTTTTATTTAGCTAAGCATGCTAACGATGACACTTC [TGCATGCA_site79]	6.88
AAGAAAATGTATATATGTACATACAATCAAAAGAAG [XGTACX_site3454]	7.28
AAAATATATTAAGGCACACACATACAGATATATATA [CACACA_site5951]	7.29
TTTTTTCTTTTTTTTTTTTTTTTCTTTTTTTTTTTT [GTGCAC_negctrl_site196]	7.17
TACATACACAAATACACACACAAATACATACCCAAA [CACACA_site4550]	7.27
TACGTGAAATTATATACACACATAAATATGGGTGTA [CACACA_site5687]	6.79
GGTATACTCAAGTATACACACATATATATATATATA [CACACA_site5746]	9.65
AACAATATGGATGTATGTACACATATAGAACGTTAT [XGTACX_site7142]	7.18
TATGCATTTATGCATTGTACTTTTATAGATTCCACC [XGTACX_site7121]	6.99
ATATTATATATACACGCACACACACTAATATATATA [CACACA_site9092]	7.62
GAAATTTTATTACTTTTACACACCTATATATTATTC [CACACA_site9076]	6.95
TACAAAAAAAAAGAACGTACAAAAAATTTCAAAAAT [XGTACX_site5860]	6.91

Sequence	gcPBM binding intensity (ln)
TTAAACTATACCAAAACACACATACAAAATATAAAA [CACACA_site5494]	7.09
TATGTATATATATTAACACACAAAAAAAAAAAAAAA [CACACA_site1812]	7.28
ATGAACGGAAAAATATATATAAATATATATATCATG [XGTACX_negctrl_site342]	6.7
TACATGATAGATCACACACACATATAAATATATATA [CACACA_site5562]	7.2
TAAAATAACTCACAAAGTACAAAAATAAGCATATGA [XGTACX_site7046]	6.96
ACATAAGACACAAATACACACAAAAATATATAACAA [CACACA_site4082]	7.23
ATATATATATATATATGTACATAATGCATATAATAT [XGTACX_site6142]	9.12
TTAATACTTTTTTCTGTACACACTTGATTTACTATA [CACACA_site2799]	7.07
TAAACACCCATACATACACACATACATACACCCATA [CACACA_site5125]	7.1
TTCTTCAATATATTCTTACACACTTAAAAAAAAAAA [CACACA_site228]	7.5
GTATATAAATAAATAGTGCATTATTAAAAATAATGT	9.36
TTTTTTTTTTTTTATTGTACATACTTTTAAATATAT [XGTACX_site4303]	6.98
ATATATTTATATTTTTGTACCCAAAATTGTTTGATG [XGTACX_site3581]	6.95
ATTGAGGCTGGTTATATAATAATTTTATTATTTTAG [GTGCAC_negctrl_site409]	6.62
TAAAAGTTGAAGCACACACACAAAAGAAATACAATA [CACACA_site6649]	6.91
TTAAAGCTTGCATATACACACATACATAAATTCATA [CACACA_site7208]	6.95
GTATACAACATATGAACACACAAAATATTTTTTTTT [CACACA_site2928]	7
TATCTCCACAAAAGATGTACTCATATTAATTTATAA [XGTACX_site3535]	7.11
TATGAAAAGTAAAGTACACACAGGAAAAAAAAAAAA [CACACA_site1749]	7.03
